Source: the supplement of paper PMC11417369
± gives the standard deviation of the averaged measurements. Some of the results follow.

Each sequence was assayed on PfAP2-EXP AP2 domain (GST-tagged) (assay: gcPBM binding intensity (ln(normalized median fluorescence intensity)); higher = stronger DNA binding).
How it was run: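 Binding intensity is the highest Masliner-normalised natural-log median intensity over replicate spots in either probe orientation. To obtain it, GST-tagged P. falciparum DNA-binding domains made in E. coli were incubated for 1 h on an Agilent 4 × 180k array of primer-extended double-stranded 36-bp intergenic genomic probes plus negative controls. Detection used Alexa488 anti-GST antibody with scanning at 488 nm.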

Sequence | gcPBM binding intensity (ln)
TAAAACAATATAAAATGTACAGAATTTTTTTTTCTT [XGTACX_site6820] | 8.02 ± 0.4
ATAATGAAAAGAAAGGGTACAAAAAAAAAAAAAAAT [XGTACX_site3350] | 8.87 ± 0.38
TTCTTTTATGATAATTGTACCCTTTTTAAAAAGAAA [XGTACX_site7815] | 8.69 ± 0.37
AACTGATTATTTTTTTGTACATATATAATAATATAT [XGTACX_site5953] | 8.61 ± 0.33
TTTTTTTTCAATGGCACACATTTTAGATTTATGCTT [CACACA_site4735] | 8.43 ± 0.42
ACATGTGAATTTTAGGTGCACTTGTAATTTAACATT | 8.805 ± 0.021
TTTTTATTTATTCTCTTTGTATTATAAAATAAAAGC [XGTACX_negctrl_site253] | 8.4 ± 0.34
ATATATATATAATGTTGTACATAAATATTATATTTA [XGTACX_site5225] | 9.62 ± 0.16
GGAAAAATATAATATGCATGTTATTATTTTTTTATA [TGCATGCA_site836] | 8.32 ± 0.27
TATTTATTTATTTAATGTACAAAAGAACAAGAATTT [XGTACX_site2248] | 8.51 ± 0.52
TATGTATATACATAAACATGCAAAAACAATATCTTA [TGCATGCA_site950] | 8.66 ± 0.35
TCTTAATCGTATTATTACTATAATTATATAATATTT [CACACA_negctrl_site1594] | 8.79 ± 0.75
TTCTTCTGTTTTATTACACACCATTTTGTGTATACA [CACACA_site7059] | 8.96 ± 0.35
CAAAAAGGAATGTATGCACACAATTGATTTTAACTC [CACACA_site1468] | 8.7 ± 0.38
AACGATATATGTACTACACACATTATGTCATCCTAT [CACACA_site2464] | 8.76 ± 0.28
ATATATATATTATATAGTACAGAGTATACTATTATA [XGTACX_site1893] | 8.925 ± 0.021
ACAAAAGGGGAATACACACACATATATATATATATA [CACACA_site2215] | 10.2 ± 0.52
GATCTAAAAACAAGGTGTACAAGAAAAAAAAAAAAA [XGTACX_site7577] | 8.47 ± 0.5
AGTTATATGTACTACACACGTACACAAAATAAGATA [CACACA_site3719] | 8.88 ± 0.18
CTTAATTTTTTTTAATGTACATACATATAAACCTTT [XGTACX_site2233] | 8.62 ± 0.45
TATTCTTTTATGAATACACACATATACGAAAATATT [CACACA_site6585] | 8.41 ± 0.45
AAGGAGAAATATTGCACACGTGCAAAATGGTATGAG [CACACA_site259] | 9.2 ± 0.13
AAAATTAAAAATAACACACACATATTTATATTTATA [CACACA_site7329] | 8.12 ± 0.39
AAATGTTAAAAAGAGAAAAACAATAAAAAACAATTA [CACACA_negctrl_site1044] | 8.64 ± 0.39
AAAAGGTTATCAAAATGTACGAAATGTTACAAAAAT [XGTACX_site6215] | 8.66 ± 0.47
AGGTGTCATAGATGCACACAAAAGTAACACGCACCT [CACACA_site4418] | 8.54 ± 0.3
ATAACCTAATAATACACACACATGAATATAAATAAC [CACACA_site6584] | 8.79 ± 0.39

Sequence | gcPBM binding intensity (ln)
ATATATATTTTATACGCATGTAATTATTATGTGGTC [TGCATGCA_site45] | 8.68 ± 0.3
AAACAATTTGGGTGTACACATGATACGTTCGATGAG [CACACA_site5160] | 9.03 ± 0.35
ATATTATACATTTATACACACATAAAAAGACAAAAA [CACACA_site3565] | 8.77 ± 0.45
TGTAATATTTTTCATGCATGCTCTTCTTTTACATAA [TGCATGCA_site144] | 9.35 ± 0.35
ATAATTTATATTACTTGTACATATTTATATGAACGA [XGTACX_site3610] | 8.18 ± 0.23
TATATTAAACAATATACACACATTAATGTATCCATA [CACACA_site5523] | 8.4 ± 0.38
TTATATATATATATATGTACACATATATAACATGAT [XGTACX_site6643] | 8.67 ± 0.18
ACATGTAAATTTACATGTACATGTAACACTTAATAT [XGTACX_site4575] | 8.96 ± 0.32
AAAACAAACGGACACACACACATATATATATATATA [CACACA_site5924] | 10.1 ± 0.32
TACATATTTACTATCACACACACGATATATATAAAT [CACACA_site1242] | 8.74 ± 0.36
TACTTAAAAAAAAAAAAAATAAATATTATGTATTAT [CACACA_negctrl_site138] | 8 ± 0.43
ATACGAAAAAATAGACGTACTATGAAATAATAATTT [XGTACX_site8387] | 8.78 ± 0.44
TTTAGTGAGTTTGTTGTGCACTGAAAAAATTACAAT | 9.07 ± 0.11
TAATATTTTAATTGTGTGCACATTAATATTATAAAA | 8.575 ± 0.035
TATATTATTTTTTGTGGTACATGTATTTTTACCTAA [XGTACX_site4348] | 8.94 ± 0.37
GTACATTATATATATACACACATACATAATAAAGAA [CACACA_site5528] | 8.6 ± 0.47
ATATGCTATTAATTATGTACATATATATATATATAT [XGTACX_site4901] | 10.1 ± 0.25
ACTACGTGTCAAAAATATTAATTACAAATGAATAAA [GTGCAC_negctrl_site248] | 8.04 ± 0.29
GGACTATACAGTTATACACACACATATATATATAAT [CACACA_site7991] | 8.74 ± 0.51
CGAAAGGAAATATAACGTACATAAGATTATATTCAC [XGTACX_site3868] | 8.64 ± 0.45
AATAAATAAATATATTGTACATATATATATATATAT [XGTACX_site8627] | 10.2 ± 0.4
ATGCATACACTTATATGTACACATTTACATATTATT [XGTACX_site2841] | 8.82 ± 0.34
TATTAAAAGAAAAAAAAAAAAAAATTAATACATATA [XGTACX_negctrl_site582] | 8.18 ± 0.54
ATGAACAAGGGGCACACACACATTATGACTAATTTA [CACACA_site3204] | 8.72 ± 0.5
TATTAATATATAGTAGTGCAATAAAGATATACTGAA | 8.85 ± 0.14
AACATACTCACGAACATACACACGGACATACATACG [CACACA_site603] | 8.99 ± 0.57
ATCATTTTTATAAATTGTACAAATATTTTTTATACA [XGTACX_site7551] | 8.6 ± 0.33

Sequence | gcPBM binding intensity (ln)
ATTTCGTAATTTATATCACACACATATATATATAAT [CACACA_site9021] | 8.89 ± 0.52
CATATTATTTATATTTGTACACAGCGATATGAAATA [XGTACX_site7717] | 8.73 ± 0.39
TATATATATATATATGTGCACATATATATGATATTA | 10.1 ± 0.34
CTTACATAAAATATCACACACATAAAAAAACAATAT [CACACA_site1901] | 8.87 ± 0.39
CACCAATTCATATGCACACACATCTGCATATTATAG [CACACA_site6925] | 8.8 ± 0.15
ATATCGCACGTTTGAAGTACATAAAAACGATTAATA [XGTACX_site7684] | 8.66 ± 0.34
TTATATAAATATAAGGTGCTGGGGTTTATTACATAT [GTGCAC_site9909] | 9.03 ± 0.54
TTTTTTAAAATATAAAATATGTACAAATATGTTGAA [GTGCAC_negctrl_site379] | 8.56 ± 0.33
TATAAAATATAAATTTGTACATATAAAATATTTTAT [XGTACX_site7462] | 8.45 ± 0.33
TAATAGTTATAAAATACACACCAGGCATGATAAATG [CACACA_site4335] | 8.5 ± 0.41
AATATTTTAAAAAAATGTACTTTTAACCCTTATTGG [XGTACX_site3490] | 8.12 ± 0.33
ATATATGGGTAGTATACACACTGTATATTTAGGAAT [CACACA_site7357] | 8.83 ± 0.35
GTATGAAAAAAATATGCATGCTAAATAATAAATGTT [TGCATGCA_site352] | 9.35 ± 0.4
TATATATATATACATACATATAAAGTTACATAAACA [CACACA_negctrl_site432] | 10 ± 0.18
TAGATTTTTTTACATTGTACATATTTTTTCTTATAG [XGTACX_site293] | 8.7 ± 0.46
GAACAAACAAAGAAAGAACACACATACACAATATAC [CACACA_site8918] | 9.06 ± 0.36
AATACATACATATATACATGCATACATATAAATATA [TGCATGCA_site674] | 8.64 ± 0.35
ATGATTTATTATTATACACACAAAAAAAAAAAAGGA [CACACA_site264] | 8.49 ± 0.47
GAACAAAAAAAAAATTGTACACAATTTTTTAAAATT [XGTACX_site4455] | 8.3 ± 0.39
AAACAAAAAAAATAAGCACACATATATATATATATA [CACACA_site8173] | 10.1 ± 0.26
GCTTATAAGATATGCACACACAACACTTACAAAAAA [CACACA_site817] | 8.53 ± 0.37
AAAATTATATGTAATTGTACGGAATTATATACGCAA [XGTACX_site2048] | 8.86 ± 0.3
TTTTTTAAAAATATTATCATCGTAACAAGAAATCGA [CACACA_negctrl_site1111] | 8.45 ± 0.4
TCCTGTGGTTATATAACACACATTATTGCTTATAAG [CACACA_site6823] | 8.66 ± 0.43
ATATTGCTTATTTGATGTACGAATACACTAGTATTA [XGTACX_site4536] | 8.59 ± 0.26
ATACTAAATGAACACACACACATATAGATTTATAAC [CACACA_site6200] | 8.71 ± 0.59
TATCTGTATATGTGTACACATATTCTTAACTCACGC [CACACA_site4255] | 8.87 ± 0.37

Sequence | gcPBM binding intensity (ln)
GAACAACAACAAAAAAAAAAAAAAAAAAAAAAAAAA [CACACA_negctrl_site199] | 7.87 ± 0.49
TAAATAAATATATGTACACACACAAATATATACATA [CACACA_site8577] | 8.26 ± 0.39
TATATGATATAATATACACACATACATATATATATA [CACACA_site8066] | 9.76 ± 0.33
ATTTTATGAAATGTTGCACACAAAAAACAACATGTT [CACACA_site8408] | 8.61 ± 0.35
ATGGGAAAAACATTCCGTACATACATACACATATAT [XGTACX_site8263] | 8.45 ± 0.38
ATATTTAATACAAATACACACACAAATATATACATA [CACACA_site9248] | 8.65 ± 0.54
CTGAATTTTTATAACTGTACATATTTGATATAAAAA [XGTACX_site183] | 8.42 ± 0.2
GAAATCTAATTTATTACACACATTTGAAAAAAATTC [CACACA_site6640] | 8.1 ± 0.42
TTACTAAGAAGGATTTATTTTATAAAAATATTTATT [XGTACX_negctrl_site549] | 7.95 ± 0.41
AATTTTTTGAATAATTGTACATATTTGGTTAAATAT [XGTACX_site3612] | 8.25 ± 0.37
ACCCATTTTTGTTGTTCTATATATTCGTGAATCATT [CACACA_negctrl_site614] | 8.88 ± 0.49
TTATATTTTTTTGAGTGTACTTTTTGTGTAAAATTC [XGTACX_site2155] | 8.51 ± 0.37
ATATTTTATACTTGCACACAAAATATATTAGAATGT [CACACA_site1985] | 8.51 ± 0.23
TACAGATAAATATACATACATATATATATATATATA [XGTACX_negctrl_site182] | 9.93 ± 0.56
ATATTATTTTATTTTTGTACAGATATCTTTAAAAAA [XGTACX_site3734] | 8.61 ± 0.4
CACGCGCACGAACACACACACACACGCATATAAATA [CACACA_site7103] | 8.71 ± 0.39
TTTTTTTTTTTTTTTGCACACTTAAATTTGGTGGGG [CACACA_site2344] | 8.96 ± 0.26
AATACATACATACATACATGCATATATATATATATA [TGCATGCA_site462] | 10.2 ± 0.14
AACATCATCTCTCCACAACAACAAAAAAAAAAATAC [CACACA_negctrl_site311] | 8.61 ± 0.49
TTATTAAAAATGGTATGTACGCACATAATATATATA [XGTACX_site3230] | 8.87 ± 0.24
TGTTTATGTTTACATGTGCGCATTACAGAAAAAAAA [GTGCAC_site9669] | 8.9 ± 0.28
TATTTTTATTGGTGAATACACACGTATATATATATT [CACACA_site2401] | 8.69 ± 0.39
ACATGTATACTTTTTACGAAAAAAAAAAAAAAAAAA [CACACA_negctrl_site1638] | 8.09 ± 0.45
TTTTTATTTAAAAGTAGTACAAGGGTTATTATTAAC [XGTACX_site1555] | 8.54 ± 0.37
